About 290 (0.32%) of roughly 91,000 compounds were called active. The shares of active, inactive and inconclusive entries below differ from those in the screen. Calls follow the shape of the dose curve; as a rule, active = well fitted inhibition curve with a large enough effect; inconclusive = small, poorly fitted or top-dose-only effect; inactive = no such curve, though single readings can be large or run the other way. A potency beside an inconclusive call is a rough fit, not a confirmed value.
Biological target: Single-stranded DNA cytosine deaminase (Homo sapiens) (UniProt Q9GZX7)
Sequence of UniProt Q9GZX7 (Q9GZX7 whole entry, looked up): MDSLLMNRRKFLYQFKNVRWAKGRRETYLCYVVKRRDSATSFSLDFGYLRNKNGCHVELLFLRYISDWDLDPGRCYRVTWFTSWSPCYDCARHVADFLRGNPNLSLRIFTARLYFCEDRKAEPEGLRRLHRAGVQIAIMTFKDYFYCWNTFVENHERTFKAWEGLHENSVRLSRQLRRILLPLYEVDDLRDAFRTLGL
Test: Primary qHTS assay for inhibitors of Activation Induced Cytidine Deaminase (AID): AID signal; also: nearly all actives have a fitted effect of over 25% in size
Settings: AID deamination FRET fluorescence, UDG-coupled, 4 h; activity change, negative = inhibition: at 115 µM (top of the series)
From the text: Assay Provider (PI) Patricia Gearhart Ph.D.
National Institute on Aging
National Institute of Health (NIH), Bethesda, MD
Assay Provider (PI) Rahul Kohli Ph.D.
Perelman School of Medicine
University of Pennsylvania, Philadelphia, PA
Activation-Induced Deaminase (AID) is a cytosine deaminase which converts cytosine into uracil within stretches of ssDNA. The presence of uracil in DNA initiates a cascade of mutagenic DNA repair to introduce point mutations and DNA double strand breaks. Specific targeting of AID to the immunoglobulin heavy chain loci (Igh) promotes mutagenesis in the antibody variable region for somatic hypermutation (SHM) or switch regions leading to class switch recombination (CSR). However, AID also plays a role in accumulating unnecessary mutations across the genome. Mis-targeting of AID results in the initiation of tumor development and leads to greater drug resistance among cancer cells when continually expressed. To identify an AID inhibitor, a small molecule library will be screened in collaboration with NCATS core facility at NIH. To confirm biological function, inhibitors will be examined in an in vitro murine B-cell activation assay and subsequent secondary validation screens. Top molecules will be further screened to identify inhibitory efficacy against a wild type primary splenocytes assay. Using these approaches, we hope to identify a small molecule with great efficacy and low toxicity for use as a molecular probe to further characterize AID's intricacies, or even as a therapeutic.
A FRET based analysis of cytosine deamination, was developed to identify potential inhibitors of AID catalytic activity. This screen has two signal output, Read 1 evaluates the AID inhibition response. The second readout (Read 2) evaluates UDG response and is uses as a counterscreen to exclude false positive inhibitors. Inhibition in AID and inactivity in the UDG signal is the desired outcome for this assay.
SEQUENCE No. (e.g., 1, 2, 3, etc.); […] (e.g., Cells, Incubation, Reagent, etc.); VALUE; DESCRIPTION
1a; Reagent; 3 uL; [4/3x] 1 uM AID/2.67 U/mL UDG
1b; Reagent; 3 uL; 2 U/mL UDG
1c; Reagent; 3 uL; 1 uM AID
2a; Compound; 46 nL; Follow-up plates (0.64 uM - 10 mM)
2b; Control; 46 nL; ATA ([…] - 10 mM)
3; Time; 10 min; incubation at room temperature
5; Time; 4 hr; incubation at room temperature
6; Reagent; 4 uL; [2x] 250 mM NaOH
7; Time; 15 sec; centrifuge at 1000 rpm
8; Time; 30 min; incubation at room temperature
9a; Detection; fluorescence (Read 1: AID); EnVision (PerkinElmer) plate reader, 540 excitation and 590 emission filters
9b; Detection; fluorescence (Read 2: UDG); EnVision (PerkinElmer) plate reader, 560 excitation and 665 emission filters
NOTES (numbers refer to sequence above)
1a; Reagents were dispensed in a medium-binding black solid-bottom Greiner plates (789176F) using a BioRptr liquid dispenser. Dispense 3 uL of [4/3x] 1 uM AID (provided by Kohli lab) and [4/3x] 2 U/mL UDG (NEB M0280L) into columns 1, 2, 5 to 48.
1b; Dispense 3 uL of [4/3x] 2 U/mL UDG into column 3.
1c; Dispense 3 uL of [4/3x] 1 uM AID into column 4.
2a; Compound (7-points [uM] (0.64; 3.2; 16; 80; 400; 2,000; 10,000; 20,000) double pin-transferred (Dip Factor = 2) using the Kalypsys (Wako USA) pintool equipped with a 1536 pinhead for a final concentration range of 7.32 nM - 114 uM.
2b; 10 mM Aurintricarboxylic Acid (Sigma A1895) (ATA, 8-point, n = 2, 1:2.5 dilution in column 2) double pin-transferred (Dip Factor = 2) using the Kalypsys (Wako USA) pintool equipped with a 1536 pinhead for a [final] range of 186 nM - 114 uM.
3; Room temperature incubation.
4; Dispense 1 uL of substrate mixture from the Kohli lab [4x] […] DJC20 and [4x] 250 nM DJC23 into columns 1 to 48 .
5; Room temperature incubation.
6; Dispense 4 uL of substrate mixture [2x] 250 mM NaOH into columns 1 to 48.
7; Centrifugation step to remove bubbles.
8; Room temperature incubation
9a; Fluorescence signal (column label AID) was read using the EnVision plate reader. […]
% is scaled to controls: 0 for no effect and ±100 for the full control effect; potency is read from the fitted curve at half-maximal effect; tags tell the direction and shape of the fitted curve.

SMILES | Potency | activity change, negative = inhibition
CCOC(=O)c1ccc(CN(Cc2ccccc2)S(=O)(=O)c2ccc(Cl)cc2)cc1 | inconclusive: 22.4 µM [inhibitor, single point] | 
CC(C)Oc1ccc(CNC(=O)C2CCN(C(=O)N3CC(C)Oc4ccccc43)CC2)cc1 (centres undefined) | inconclusive: 89.1 µM [inhibitor, single point] | 
Cc1ccccc1C(=O)Nc1nc(-c2ccc(Br)cc2)ns1 | inconclusive: 100 µM [inhibitor, single point] | 
CCOC(=O)c1cnc2ccc(OCC)cc2c1N1CCN(c2ccccc2F)CC1 | inconclusive: 39.8 µM [inhibitor, single point] | 
O=C(CSCc1cnn(-c2ccccc2)c1-n1cccc1)NCc1ccc(F)cc1 | inconclusive: 20 µM [inhibitor, partial curve, poor fit] | 
Cn1c(SCC(=O)Nc2sccc2C#N)nnc1-c1ccc(Cl)cc1 |  | inactive: 6.99%
CC(/C=C/c1ccccc1)=N/Nc1ccc([N+](=O)[O-])cc1 |  | inactive: -1.47%
Cc1cc2nc(NC3=NCN(CCO)CN3)nc(C)c2cc1C | inconclusive: 56.2 µM [inhibitor, partial curve, poor fit] | 
Oc1ccc2cccc(O)c2c1 |  | inactive: 60.2%
CCOc1ccc(Nc2c(S(=O)(=O)c3ccc(C)cc3)cnc3cc(OC)c(OC)cc23)cc1 | inconclusive: 89.1 µM [inhibitor, single point] | 
O=C(O)CCNC(=O)C(F)(F)C(F)(F)C(F)(F)C(F)(F)C(F)(F)C(F)(F)F |  | inactive: 5.72%
N#CCN(CC#N)C(=O)Cc1cccs1 |  | inactive: 4.75%
COc1cccc(CN2CCc3nc(Nc4ccc5c(c4)OCCO5)ncc3C2)c1OC | inconclusive: 79.4 µM [inhibitor, single point] | 
Clc1cccc(-n2ncc3c(NCCc4ccccc4)ncnc32)c1 | inconclusive: 17.8 µM [inhibitor, full curve, poor fit] | 
Cc1ccccc1C(=O)NC1(C(F)(F)F)N=C(c2ccccc2)N(Cc2ccco2)C1=O (centres undefined) |  | inactive: 6.67%
CCOC(=O)c1c(C)oc2nc(C)nc(N(CC(C)C)CC(C)C)c12 | inconclusive: 39.8 µM [inhibitor, partial curve] | 
CC(C)CN(CC(C)C)c1nc(-c2ccc(Cl)cc2)nc2ccccc12 | inconclusive: 79.4 µM [inhibitor, partial curve, poor fit] | 
C=CCc1c(C)nc2nc(SCC(=O)Nc3cccc(Cl)c3)nn2c1C | inconclusive: 79.4 µM [inhibitor, partial curve, poor fit] | 
CC(CNC(=O)C1CCC(C(=O)NCC(C)c2ccccc2)CC1)c1ccccc1 (centres undefined) |  | inactive: 0.838%
CCc1cccc(NC(=O)c2cc3c(=O)[nH]c4ccccc4c3n2C)c1 | inconclusive: 28.2 µM [inhibitor, single point] | 
N#Cc1cccc(Oc2ccc(C3CCCCC3)cc2)c1C#N |  | inactive: -2.77%
Cc1ccc(CN2CCSc3ccc(C(=O)Nc4cc(C)cc(C)c4)cc32)cc1 | inconclusive: 5.01 µM [inhibitor, partial curve, poor fit] | 

SMILES | Potency | activity change, negative = inhibition
NS(=O)(=O)c1cccc(C(=O)O)c1 |  | inactive: -4.69%
Cc1cccc(N2CCN(C(=O)c3ccc4c(c3)c(C)c(C)n4C)CC2)c1C |  | inactive: 22%
CC(c1nc(-c2cccc(C(F)(F)F)c2)no1)N1CCN(C(=O)Nc2cccc(C#N)c2)CC1 (centres undefined) | inconclusive: 79.4 µM [inhibitor, partial curve, poor fit] | 
CC(=O)N1c2ccc(S(=O)(=O)N3CCCCCC3)cc2CC1C(=O)NCc1ccccc1 (centres undefined) | inconclusive: 2.82 µM [inhibitor, full curve, poor fit] | 
Cc1cc(C)cc(C(=O)N2CC(=O)Nc3ccc(C)cc3C2c2ccccc2)c1 (centres undefined) | inconclusive: 20 µM [inhibitor, single point] | 
Cc1cc(NC(c2nnc(-c3ccccc3)o2)c2ccccc2F)ccc1Br (centres undefined) | inconclusive: 15.8 µM [inhibitor, full curve, poor fit] | 
CCS(=O)(=O)c1ccccc1C(=O)N(Cc1cccnc1)c1nc2cc(C)c(C)cc2s1 | inconclusive: 44.7 µM [inhibitor, partial curve, poor fit] | 
COc1ccc(-c2nc(CSCC(=O)NCCc3ccc(C)cc3)c(C)o2)cc1OC | inconclusive: 56.2 µM [inhibitor, single point] | 
Cc1cccc(C)c1OCCCCn1c(C2CC(=O)N(c3ccc(F)cc3)C2)nc2ccccc21 (centres undefined) | inconclusive: 39.8 µM [inhibitor, full curve, poor fit] | 
COc1ccccc1-c1noc(CSc2nnc(Cc3ccccc3)n2-c2ccc(C)c(C)c2)n1 | inconclusive: 50.1 µM [inhibitor, partial curve, poor fit] | 
O=C(c1ccccc1O)N1CCN(S(=O)(=O)c2ccc3ccccc3c2)CC1 |  | inactive: -5.49%
OCCNc1nc(Nc2ccc(Cl)c(Cl)c2)nc2nccnc12 | active: 35.5 µM | 
Cc1ccc(-c2sc(C(=O)Nc3ccc(Br)cc3)cc2CC(=O)O)cc1 | inconclusive: 56.2 µM [inhibitor, partial curve, poor fit] | 
CCn1c(=O)c2cc(C(=O)N(CCCOC(C)C)Cc3ccco3)sc2c2ccccc21 | inconclusive: 44.7 µM [inhibitor, partial curve, poor fit] | 
COc1ccccc1C(=O)Nc1ccc2nc(N3CCC(C)CC3)cc(C)c2c1 | inconclusive: 35.5 µM [inhibitor, partial curve, poor fit] | 
Fc1cccc(Cn2c(-c3cncs3)nc3ccccc32)c1 | inconclusive: 25.1 µM [inhibitor, partial curve, poor fit] | 
COc1cccc(CC(=O)Nc2ccc3nc(N4CCC(C)CC4)cc(C)c3c2)c1 | inconclusive: 10 µM [inhibitor, full curve, poor fit] | 
Cc1ccc(CNC(=O)CSc2ncc(S(=O)(=O)c3ccc(Br)cc3)c(=O)[nH]2)cc1 | inconclusive: 50.1 µM [inhibitor, partial curve, poor fit] | 
Cc1ccccc1Cn1c(CN2CCC(C(=O)NCc3cccnc3)CC2)cc2ccccc21 | inconclusive: 25.1 µM [inhibitor, full curve, poor fit] | 
CC(=O)c1cccc(NC(=O)CN2C(=O)c3ccccc3Sc3ncccc32)c1 |  | inactive: 0.961%
Cc1ccc(C(=O)N(Cc2ccco2)C2CC2)cc1C |  | inactive: -0.187%
Cc1ccc2c(=O)c(-c3nc(-c4ccc(Cl)cc4)no3)cn(CC(=O)NCc3ccco3)c2n1 |  | inactive: -12.4%

SMILES | Potency | activity change, negative = inhibition
O=C(c1cnn(-c2cccc(F)c2)c1-n1cccc1)N1CCN(c2ccccc2F)CC1 | inconclusive: 31.6 µM [inhibitor, full curve] | 
CC1CCN(c2nc3c(S(=O)(=O)c4ccccc4)nnn3c3ccc(Cl)cc23)CC1 | inconclusive: 3.98 µM [inhibitor, full curve, poor fit] | 
O=C1CCC(C(=O)OC2CCOC2=O)=NN1 (centres undefined) |  | inactive: -5.37%
CCc1nnc2c(N3CCN(c4cccc(C)c4)C(C)C3)nc3ccccc3n12 (centres undefined) | inconclusive: 20 µM [inhibitor, full curve, poor fit] | 
COc1ccc(-c2nc3c(c(SCC(=O)Nc4cccc(O)c4)n2)Cc2c(CO)cnc(C)c2O3)cc1 | active: 44.7 µM | 
Cc1ccc(C(=O)N(Cc2ccco2)Cc2sccc2C)cc1 | inconclusive: 79.4 µM [inhibitor, partial curve, poor fit] | 
CCOC(=O)c1ccc(NC(=O)CSc2nnc(-c3cccc(Cl)c3)n2Cc2ccco2)cc1 |  | inactive: 11.4%
COc1cc(Cn2c(=O)oc3ccc(C)cc32)ccc1OCCC(C)C | inconclusive: 56.2 µM [inhibitor, partial curve, poor fit] | 
CC1=C(C(=O)Nc2ccc(C)cc2C)C(c2ccccc2)n2nc(SCC(=O)c3ccc(C)cc3)nc2N1 (centres undefined) | inconclusive: 100 µM [inhibitor, single point] | 
Cc1cc(Nc2ccc(Br)cc2)n2nc(-c3ccccc3C)nc2n1 | inconclusive: 100 µM [inhibitor, partial curve, poor fit] | 
O=C1C(C2=CCCCC2)CCCC1C1=CCCCC1 (centres undefined) |  | inactive: 2.36%
Cc1ccc(CSc2c(C)cnc3c2c(=O)n(C)c(=O)n3C)cc1 | inconclusive: 100 µM [inhibitor, full curve] | 
Cc1ccc(CNC(=O)CCNS(=O)(=O)c2ccc3c(c2)oc(=O)n3C)cc1 | inconclusive: 89.1 µM [inhibitor, single point] | 
O=C1c2ccccc2-c2onc3c(N4CCN(C5CCCCC5)CC4)cc(NCCO)c1c23 |  | inactive: 168%
CCc1ccc2oc(C(=O)N(Cc3ccc(N(C)C)cc3)Cc3ccco3)c(C)c2c1 | inconclusive: 56.2 µM [inhibitor, partial curve, poor fit] | 
Cc1ccc(-c2cn3c(n2)sc2cc(C(=O)NCCCN4CCCCCC4)ccc23)cc1 | inconclusive: 50.1 µM [inhibitor, partial curve, poor fit] | 
COc1cc(-c2cc(OC)c3c(C)oc(C)c3c(=O)c2)ccc1OC(=O)c1ccc(C)cc1 | inconclusive: 79.4 µM [inhibitor, partial curve, poor fit] | 
CCOc1ccc(NC(=O)CSC2=Nc3ccccc3C3=NC(CC(=O)NCc4cccs4)C(=O)N23)cc1 (centres undefined) | inconclusive: 14.1 µM [inhibitor, partial curve, poor fit] | 
Clc1ccc(CN2CCN(c3ncnc4sc5c(c34)CCCC5)CC2)cc1Cl | inconclusive: 31.6 µM [inhibitor, partial curve, poor fit] | 
CCN(CC)C(=O)c1sc2c(c1C)c(=O)n(Cc1ccccc1)c(=O)n2Cc1ccccc1C | inconclusive: 25.1 µM [inhibitor, full curve, poor fit] | 

From PubChem BioAssay AID1347428 (National Center for Advancing Translational Sciences (NCATS), 2020)
